Consider 1 molecule from PMC10320511.

Where a chain is given by its changes, count along the chain named. Results are given in words; binding and its absence hold for the method and conditions named. In cells and extracts the contact can be indirect. Some results given as binding are weak or reduced against the parent protein; the word gives no strength. Where a sequence is shown, tags or fusion partners need not be part of it.

In assay [1] the target is T1, FRQ E183A, E187A, V5H6-tagged (Neurospora crassa) (UniProt P19970).
T1 sequence: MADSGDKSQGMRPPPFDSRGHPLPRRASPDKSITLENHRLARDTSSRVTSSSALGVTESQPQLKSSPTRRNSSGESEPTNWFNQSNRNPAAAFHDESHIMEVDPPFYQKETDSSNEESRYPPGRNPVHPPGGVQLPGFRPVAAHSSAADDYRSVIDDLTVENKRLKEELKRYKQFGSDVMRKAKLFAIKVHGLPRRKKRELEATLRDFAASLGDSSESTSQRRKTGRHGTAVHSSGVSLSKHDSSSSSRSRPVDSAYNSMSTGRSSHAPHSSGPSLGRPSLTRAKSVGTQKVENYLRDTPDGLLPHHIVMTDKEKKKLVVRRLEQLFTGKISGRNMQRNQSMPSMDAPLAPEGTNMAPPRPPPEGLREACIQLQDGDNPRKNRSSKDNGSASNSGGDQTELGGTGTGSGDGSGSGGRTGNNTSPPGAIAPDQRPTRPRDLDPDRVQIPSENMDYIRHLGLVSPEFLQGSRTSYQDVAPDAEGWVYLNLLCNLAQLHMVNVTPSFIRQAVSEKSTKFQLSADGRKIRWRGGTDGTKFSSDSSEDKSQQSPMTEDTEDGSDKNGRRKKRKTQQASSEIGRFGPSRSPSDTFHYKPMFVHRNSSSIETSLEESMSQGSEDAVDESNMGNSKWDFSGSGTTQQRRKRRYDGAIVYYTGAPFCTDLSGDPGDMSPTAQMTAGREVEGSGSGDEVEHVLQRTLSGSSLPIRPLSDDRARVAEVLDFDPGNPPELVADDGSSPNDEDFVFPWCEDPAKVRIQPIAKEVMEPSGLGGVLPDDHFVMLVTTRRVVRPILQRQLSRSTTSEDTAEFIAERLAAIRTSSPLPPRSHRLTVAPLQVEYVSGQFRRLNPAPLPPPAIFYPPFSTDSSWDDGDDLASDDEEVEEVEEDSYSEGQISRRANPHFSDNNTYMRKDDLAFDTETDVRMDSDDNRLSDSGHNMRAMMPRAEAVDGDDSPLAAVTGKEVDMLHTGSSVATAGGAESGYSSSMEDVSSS
Briefly: co-IP; V5H6-tagged FRQ (wild type or mutant) pulled down with V5 agarose from Neurospora lysate (cultures in the light, 25 °C); 50 mM Hepes pH 7.4, 137 mM NaCl, 10% glycerol, 0.4% NP-40; 4 °C, 2 h; Western blot with FRQ, FRH, WC-1 and WC-2 antibodies. Background: Immunoblotting shows a protein as a band on a membrane.

Assay [2] deals with T2, FRQ E801A, D802A, E805A, E809A, V5H6-tagged (Neurospora crassa) (UniProt P19970).
T2 sequence: T1 sequence with A183E, A187E, E801A, D802A, E805A, E809A
The assay is described as above.

B1: White Collar-2 (WC-2) (protein, UniProt P78714 1-530)
chain: MSHGQPPPGSSMYGFGAMGMGSGMGSGMGSGMGTGMGTGMGTGMSASQMTSDPQDMMSLLDTSVFPGFDGMSMSLDVGDSMSNPFTPVSVPPPLPAGNAGPSHVGVCGGHGAPDQLFSPDDLIATSMSSAGPMIATPTTTTSGPSGGPSSGGGSTLTEFTKRRNWPAKVVEELQDWEHILDANGRIKHVSPSVEPLTGYKPPEIIDLFLRDLIHPDDVGVFTAELNEAIATGSQLRLFYRFRKKDGNWTIFETVGHAHIAAAKFAPNPQNQSPFCQAVFMMARPYPTKNAGLLDSFLEHKIENERLKRRIAELRREEQEEQEESHRTWRMSQEGRSDVTPSDDTATQMGMTPFYIPMNAQADVMMPPPSQPASSLNIALTRENLEGIAGSRPDSIREKMLRYEGNHADTIEMLTGLKYQEGERSHGITTGNASPTLIKGDAGIAIPLDRDPRTGEKKKKIKVAEEYVCTDCGTLDSPEWRKGPSGPKTLCNACGLRWAKKEKKKNANNNNNGGGIGGHNDIHTPMGDHMG
B1: the values for the binding result in assay [1] and in assay [2] were “no binding” and “binds”, respectively.
